From PubChem BioAssay (NCI)
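Briefly, cells in 96-well plates were exposed to five compound concentrations for 48 h, and endpoints were estimated by linear interpolation. GI50 = concentration required for 50% inhibition of growth. TGI: concentration producing complete growth inhibition.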

What follows are molecules tested on NCI-H322M lung (assay: NCI tumour cell line growth inhibition, 48 h).

Going from `O=c1oc2ccccc2cc1-c1cc2ccccn2c1` to `O=C1Sc2cc3ccccc3cc2C(=O)Sc2ccc(Br)cc21`, the TGI falls from > 100 µM to 29.5 µM.

`COC(=O)C(C(=O)c1ccccc1)C(C(=O)C(=O)Nc1ccc(OC)cc1OC)C(=O)C(=O)c1ccc(C)cc1` (centres undefined) and `COC(=O)C1=C(C(=O)OC)N(c2ccc(OC)cc2[N+](=O)[O-])C(c2ccc(C)cc2)=CC1c1ccc(OC)cc1OC` (centres undefined) cannot be ordered by TGI: > 100 µM for the first, > 80.4 µM for the second.

`Cc1ccc(-n2cnc(C(=N)C#N)c2N)cc1` and `N#Cc1n[nH]n(-c2ccc(Br)cc2)c1=O` cannot be ordered by TGI: > 100 µM for the first, > 100 µM for the second.

First: C/C=C(\C)C(=O)O[C@H]1C=CC(=O)O[C@H]1CCC(=O)[C@H](C)O
Second: C=C1C(=O)OC2CC(C)C(C(CC(C)=O)OC(C)=O)=CCC12 (centres undefined)
The TGI of the first is lower: 50.1 µM for the first, > 89.7 µM for the second.

`O=C(Nc1ccccc1)c1cc(S(=O)(=O)NC2=NC(c3ccccc3)c3cc(Cl)ccc3N2)c(SSc2cc(Cl)c(C(=O)Nc3ccccc3)cc2S(=O)(=O)NC2=NC(c3ccccc3)c3cc(Cl)ccc3N2)cc1Cl` (centres undefined) and `NC(N)=NS(=O)(=O)c1ccc(NNc2c3ccccc3nc3c(C(=O)Nc4ccc(S(=O)(=O)Nc5ncccn5)cc4)cccc23)cc1` cannot be ordered by TGI: > 100 µM for the first, > 100 µM for the second.

Going from `COc1cc(C2C3C=CC=C4CC=CC(=C43)C3CCC(=O)N32)cc(OC)c1OC` (centres undefined) to `COc1cc(C(=O)N2CCN(C=O)C2=S)cc(OC)c1OC`, the TGI falls from > 100 µM to 65.4 µM.

`NC(CCCCCP(=O)(c1ccccc1)C1C=CC=CC1)C(=O)O` (centres undefined) and `CC(=O)c1ccccc1NP(=O)(c1ccccc1)c1ccccc1` cannot be ordered by TGI: > 100 µM for the first, > 100 µM for the second.

`CC(C)C(CCl)NC(=O)c1cccc(C(=O)N[C@H](CCl)C(C)C)n1` (stereo in doubt) and `CCCNC(=O)NNC(=O)c1c[nH]c2nc(C)ccc2c1=O` cannot be ordered by TGI: > 100 µM for the first, > 100 µM for the second.

`CC1(C)C(C#N)C1C1=C(N2CCOCC2)[C@]2(C)C(OC(=O)c3ccccc3)CC[C@@H]2C1` (some centres undefined) and `CC12C/C(=C\c3ccccc3)C(=O)C3C1CCCC32` cannot be ordered by TGI: > 100 µM for the first, > 100 µM for the second.

`CSc1nc(=O)n(CCC#N)nc1SC` and `Cn1c(I)c(C#CCO[Si](C)(C)C(C)(C)C)c(=O)[nH]c1=O` cannot be ordered by TGI: > 100 µM for the first, > 100 µM for the second.

`COC(=O)c1c(O)ccc2c1c1c(n2Cc2cc(OC)cc(OC)c2)C(=O)c2ccccc2C1` and `COc1cc(Nc2ncccc2C(=O)NCc2cn(Cc3cccc(Oc4ccccc4)c3)nn2)cc(OC)c1` cannot be ordered by TGI: > 100 µM for the first, > 100 µM for the second.

Going from `Cc1n(Cc2ccccc2)c2c([n+]1C)C(=O)c1ccccc1C2=O` to `C[n+]1c2ccc(Cl)cc2nc2cc(-c3ccccc3)ccc21`, the TGI rises from 1.45 µM to 12 µM (8.3-fold).

`N#CN/C(N)=N/CO` and `N.N.N.N.O=C([O-])CCl.O=C([O-])CCl.[Co+3].[O-][Cl+3]([O-])([O-])[O-]` cannot be ordered by TGI: > 100 µM for the first, > 100 µM for the second.

Compared with `CC(=O)N=C1N(/C=C2\C(=O)Oc3ccccc3C2=O)C(=O)/C(=C/c2cccc(Cl)c2Cl)N1C`, `O=C(O)COc1ccc2c(=O)c3sc4c(=O)c5ccccc5c(=O)c4c3c(=O)c2c1` is lower in TGI: > 100 µM for the first, 18.1 µM for the second.

Compared with `CC(=O)Nc1ccc(N=Nc2c(O)c(S(=O)(=O)O)cc3cc(S(=O)(=O)O)ccc23)cc1`, `CC(=O)Nc1ccc(S(=O)(=O)N2C(=O)CCC2C(=O)Nc2ccc(Br)cc2)cc1` (centres undefined) is lower in TGI: > 100 µM for the first, 23.9 µM for the second.

`O=[N+]([O-])c1ccc2[nH]c(=S)[nH]c(=S)c2c1` and `C=CCn1c(N)c(C#N)c(C#N)c1-c1ccccc1` cannot be ordered by TGI: > 100 µM for the first, > 100 µM for the second.

Going from `S=C(Nc1ccc(Cl)cc1)Nc1ccc(-c2nc3ccccc3s2)cc1` to `CO/N=C(\C)c1ccc(Nc2nc3ccccc3c3occc23)cc1`, the TGI falls from 87.2 µM to 29.6 µM (2.9-fold).

`O=C1CCC2(c3ccc(Cl)cc3)Nc3ncccc3N12` (centres undefined) and `CN1CC(=O)N2Cc3ccccc3-n3cccc3C2C1` (centres undefined) cannot be ordered by TGI: > 100 µM for the first, > 100 µM for the second.

Compared with `COC(=O)/C=C(\C(=O)OC)C1C(=O)Oc2c(C)c(=O)c3ccccc3n21` (centres undefined), `COc1ccc(OC)c2c1[nH]c(=O)c1c3ccccc3cn21` is lower in TGI: > 100 µM for the first, 3.52 µM for the second.

`N#Cc1c(N)nc(N2CCOCC2)c(C#N)c1-c1ccncc1` and `N#C[C@H](c1ccccn1)c1nc2ccccc2nc1Cl` cannot be ordered by TGI: > 100 µM for the first, > 100 µM for the second.

Compared with `C=CCc1cccc2cc(C(=O)NCc3ccccc3)c(=N)oc12`, `O=C(/C=C/c1ccccc1)Oc1cccc(O)c1` is higher in TGI: 82.7 µM for the first, > 100 µM for the second.

`CC1(C)S[C@@H]2[C@H](NC(=O)C3(N)CCCCC3)C(=O)N2[C@H]1C(=O)O` and `CC(C)NC(=O)OCc1c(COC(=O)NC(C)C)c(-c2cc[n+](COC(=O)C3CC3)cc2)n2c1CCC2` cannot be ordered by TGI: > 100 µM for the first, > 100 µM for the second.

`O=c1[nH]cnc2c1cnn2Cc1cn(CCCCO)nn1` and `Cc1cc(Cl)cc(OCCn2cc(F)cn2)c1-c1nc(N)nc2c1CN(C(=O)NCC(C)(F)F)C2` cannot be ordered by TGI: > 100 µM for the first, > 100 µM for the second.

`Cc1c(O)ccc2c(O)c(NC(=O)c3ccc4c(c3)CCC(C)(C)O4)c(=O)oc12` and `COc1cccc(C2CC(C)(O)Oc3cc4c(cc32)OCO4)c1O` (centres undefined) cannot be ordered by TGI: > 100 µM for the first, > 83.2 µM for the second.

`Oc1ccc(Nc2ncnc3c2sc2ncccc23)cc1` and `O=C(N/N=C(\c1ccccc1)c1ccccn1)NC1CCCCC1` cannot be ordered by TGI: > 100 µM for the first, > 100 µM for the second.

Going from `N#Cc1c(NC(=O)NCc2ccccc2)sc2c1CCCCC2` to `CN(C)c1ccc(/C=c2/c3ccccc3n3c2c2c([n+]3C)CCCC2)cc1`, the TGI falls from > 100 µM to 1.92 µM.

`CCCCOC(=O)CNC(=O)OC/C=C/C#CC#C/C=C/COC(=O)NCC(=O)OCCCC` and `CC(C)(C)OC(=O)N(CCCCN(CCCNC(=O)C(F)(F)F)C(=O)OC(C)(C)C)CCCNC(=O)C(F)(F)F` cannot be ordered by TGI: > 10 µM for the first, > 100 µM for the second.

`C(=NCCN1CCOCC1)=NC1CCCCC1` and `O=CCC1CCCCC1` cannot be ordered by TGI: > 100 µM for the first, > 100 µM for the second.

First: OC(CC1SCCCS1)c1ccccc1 (centres undefined)
Second: O=C(O)C(O)C(O)C(O)C(O)c1nc2ccccc2s1 (centres undefined)
The TGI of the first is higher: > 100 µM for the first, 75.5 µM for the second.

First: CC(C)N(C(=O)C12C3C4C1C1C4(C#N)C3C12C#N)C(C)C (centres undefined)
Second: CC(C)C1=CC23CCC4C(C)(C(=O)O)CCCC4(C)C2CC1C1C(=O)N(c2ccc(Cc4ccc(N5C(=O)C6C7CC8C9(C)CCCC(C)(C(=O)O)C9CCC8(C=C7C(C)C)C6C5=O)cc4)cc2)C(=O)C13 (centres undefined)
The TGI of the first is higher: > 100 µM for the first, 24.9 µM for the second.

First: O=P(O)(O)CCP(=O)(O)O
Second: NC(=O)/C=C/C(=O)c1c(Cl)cccc1Cl
The TGI of the first is higher: > 100 µM for the first, 3.32 µM for the second.

Going from `CC1(C)N=C(N)N=C(N)N1c1ccc(CCCCc2ccc(Cl)cc2S(=O)(=O)F)c(Cl)c1` to `CNCc1ccccc1-c1csc([C@@H](C)Nc2nc(C)nc3cc(OC)c(OC)cc23)c1`, the TGI falls from 18.6 µM to 4.8 µM (3.9-fold).

First: COc1cccc(CC(C)=C(c2ccc(OCCN(C)C)cc2)c2ccc(OCCN(C)C)cc2)c1
Second: CC(=O)OC(OC(C)=O)c1ccc2ccc3cccc4ccc1c2c34
The TGI of the first is lower: 8.57 µM for the first, > 100 µM for the second.

First: CC/C=C\C[C@H](O)C/C=C1/C(=O)C(Cl)=C[C@@H]1C/C=C\CCCC(=O)OC
Second: CN(CCSCCN(C)C(=O)OC(C)(C)C)C(=O)OC(C)(C)C
The TGI of the first is lower: 4.37 µM for the first, > 100 µM for the second.

`O=C1C=CC(=O)c2c1ccc1c3ccccc3n(CCCCCn3c4ccccc4c4ccc5c(c43)C(=O)C=CC5=O)c21` and `CO/N=C(\C(=O)OC(=NC1CCCCC1)NC1CCCCC1)c1csc(NC(c2ccccc2)(c2ccccc2)c2ccccc2)n1` cannot be ordered by TGI: > 100 µM for the first, > 10 µM for the second.

For `CCOC(=O)NC(Nc1ccc(C)cc1)(C(F)(F)F)C(F)(F)F`, the TGI was > 100 µM.

Compared with `C/C=C(\C)C(=O)O[C@H]1C=CC(=O)O[C@H]1CCC(=O)[C@H](C)O`, `CC/C=C\C[C@H](O)C/C=C1/C(=O)C(Cl)=C[C@@H]1C/C=C\CCCC(=O)OC` is 9.5-fold lower in GI50: 19.1 µM for the first, 2.02 µM for the second.

Going from `COc1cc(C(=O)N2CCN(C=O)C2=S)cc(OC)c1OC` to `COc1ccc(OC)c2c1[nH]c(=O)c1c3ccccc3cn21`, the GI50 falls from 24.8 µM to 1.46 µM (17-fold).

First: S=C(Nc1ccc(Cl)cc1)Nc1ccc(-c2nc3ccccc3s2)cc1
Second: CC(=O)Nc1ccc(S(=O)(=O)N2C(=O)CCC2C(=O)Nc2ccc(Br)cc2)cc1 (centres undefined)
The GI50 of the first is 4.3-fold higher: 21.1 µM for the first, 4.96 µM for the second.

Compared with `COc1cc(Nc2ncccc2C(=O)NCc2cn(Cc3cccc(Oc4ccccc4)c3)nn2)cc(OC)c1`, `Oc1ccc(Nc2ncnc3c2sc2ncccc23)cc1` is 7.6-fold lower in GI50: 6.15 µM for the first, 0.811 µM for the second.

First: N#Cc1c(N)nc(N2CCOCC2)c(C#N)c1-c1ccncc1
Second: N#Cc1c(NC(=O)NCc2ccccc2)sc2c1CCCCC2
The GI50 of the first is 59-fold higher: 25.6 µM for the first, 0.435 µM for the second.

First: Cn1c(I)c(C#CCO[Si](C)(C)C(C)(C)C)c(=O)[nH]c1=O
Second: Cc1cc(Cl)cc(OCCn2cc(F)cn2)c1-c1nc(N)nc2c1CN(C(=O)NCC(C)(F)F)C2
The GI50 of the first is higher: > 65.2 µM for the first, 37.5 µM for the second.

Going from `N.N.N.N.O=C([O-])CCl.O=C([O-])CCl.[Co+3].[O-][Cl+3]([O-])([O-])[O-]` to `NC(=O)/C=C/C(=O)c1c(Cl)cccc1Cl`, the GI50 falls from > 100 µM to 1.64 µM.

First: O=C(O)COc1ccc2c(=O)c3sc4c(=O)c5ccccc5c(=O)c4c3c(=O)c2c1
Second: CNCc1ccccc1-c1csc([C@@H](C)Nc2nc(C)nc3cc(OC)c(OC)cc23)c1
The GI50 of the first is 3.8-fold higher: 5.29 µM for the first, 1.41 µM for the second.

Compared with `CC1(C)N=C(N)N=C(N)N1c1ccc(CCCCc2ccc(Cl)cc2S(=O)(=O)F)c(Cl)c1`, `COc1cccc(CC(C)=C(c2ccc(OCCN(C)C)cc2)c2ccc(OCCN(C)C)cc2)c1` is 5.8-fold higher in GI50: 0.733 µM for the first, 4.27 µM for the second.
